Test results as given in the supplement of paper PMC12067230.
This is a noisy data set.
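Note: [psi-pin-] Saccharomyces cerevisiae expressing SupN fusions, induced by 100 µM Cu2SO4, selected 7 d at 30 °C without adenine and uracil, scored by deep sequencing of output versus input.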

Test: amyloid nucleation score relative to library mode (yeast Sup35 reporter selection) (log enrichment difference); higher = more amyloid nucleation; sequences are the first 22 residues of the Bri2 peptide extended by up to 12 random residues
Settings: random library (experiment): 1;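 active = nucleation score significantly above 0 at FDR 0.05; inactive = not significantly above 0 or absent from output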
EASNCFAIRHFENKFAVETLICDP gave an amyloid nucleation score of -0.102. For EASNCFAIRHFENKFAVETLICDPASS, the amyloid nucleation score was 0.503. EASNCFAIRHFENKFAVETLICDPIVRFCSNAML showed an amyloid nucleation score of 0.936. In the case of EASNCFAIRHFENKFAVETLICDPNVVKGGAVDS, the amyloid nucleation score is reported as “inactive”. For EASNCFAIRHFENKFAVETLICDPPFSSYMTCGM, the amyloid nucleation score was “inactive”. For EASNCFAIRHFENKFAVETLICDPSMAKGKANGT, the amyloid nucleation score was “inactive”. For EASNCFAIRHFENKFAVETLICDPTWKG, the amyloid nucleation score was “inactive”. For EASNCFAIRHFENKFAVETLICDPVIQVSRRRPK, the amyloid nucleation score was “inactive”. With EASNCFAIRHFENKFAVETLICDPVLL the amyloid nucleation score was -0.595. For EASNCFAIRHFENKFAVETLICDQCFRRRRKWQG, the amyloid nucleation score was 3.85. For EASNCFAIRHFENKFAVETLICDQDPSMLACRCG, the amyloid nucleation score was “inactive”. EASNCFAIRHFENKFAVETLICDQDTEEIRTGRQ gave an amyloid nucleation score of -0.732. With EASNCFAIRHFENKFAVETLICDQEATRRRVCPS the amyloid nucleation score was “inactive”. In the case of EASNCFAIRHFENKFAVETLICDQLR, the amyloid nucleation score is reported as “inactive”. With EASNCFAIRHFENKFAVETLICDQRRLRPGGPGL the amyloid nucleation score was “inactive”. For EASNCFAIRHFENKFAVETLICDQVHEHPGTTDA, the amyloid nucleation score was “inactive”. For EASNCFAIRHFENKFAVETLICDQVSTSLAMAAR, the amyloid nucleation score was “inactive”. For EASNCFAIRHFENKFAVETLICDQYRFRCEGQVS, the amyloid nucleation score was “inactive”. For EASNCFAIRHFENKFAVETLICDQYRSLRARRVG, the amyloid nucleation score was “inactive”. In the case of EASNCFAIRHFENKFAVETLICDR, the amyloid nucleation score is reported as -0.401. With EASNCFAIRHFENKFAVETLICDRAFYVWVTVVK the amyloid nucleation score was “inactive”. EASNCFAIRHFENKFAVETLICDRAWCPWDLVIA showed an amyloid nucleation score of -0.0194. For EASNCFAIRHFENKFAVETLICDRCVIVCPLYVQ, the amyloid nucleation score was 6.81. With EASNCFAIRHFENKFAVETLICDRECRMLMYRVS the amyloid nucleation score was “inactive”. In the case of EASNCFAIRHFENKFAVETLICDRFTRLDPYCHK, the amyloid nucleation score is reported as 2.37. In the case of EASNCFAIRHFENKFAVETLICDRGAVVCAKLHR, the amyloid nucleation score is reported as -0.219. With EASNCFAIRHFENKFAVETLICDRGDHNGCNVRR the amyloid nucleation score was “inactive”. In the case of EASNCFAIRHFENKFAVETLICDRKLRRPGGPET, the amyloid nucleation score is reported as “inactive”. For EASNCFAIRHFENKFAVETLICDRKLYSE, the amyloid nucleation score was “inactive”. With EASNCFAIRHFENKFAVETLICDRKWRVKWGLVC the amyloid nucleation score was “inactive”. In the case of EASNCFAIRHFENKFAVETLICDRLEFWYSLIAC, the amyloid nucleation score is reported as -0.444. With EASNCFAIRHFENKFAVETLICDRLEGRLTEVAA the amyloid nucleation score was “inactive”. With EASNCFAIRHFENKFAVETLICDRLGKTETCSV the amyloid nucleation score was “inactive”. Work on EASNCFAIRHFENKFAVETLICDRLILSPYFMLI yielded an amyloid nucleation score of 7.15. With EASNCFAIRHFENKFAVETLICDRLQEAGVRQGG the amyloid nucleation score was “inactive”. Work on EASNCFAIRHFENKFAVETLICDRLTRRVLWYGK yielded an amyloid nucleation score of 4.81. For EASNCFAIRHFENKFAVETLICDRPEEV, the amyloid nucleation score was “inactive”. For EASNCFAIRHFENKFAVETLICDRPRWRLCESPG, the amyloid nucleation score was “inactive”. In the case of EASNCFAIRHFENKFAVETLICDRPWPLPPCAWW, the amyloid nucleation score is reported as “inactive”. With EASNCFAIRHFENKFAVETLICDRQTK the amyloid nucleation score was “inactive”. For EASNCFAIRHFENKFAVETLICDRRLWRYVTKSM, the amyloid nucleation score was “inactive”. In the case of EASNCFAIRHFENKFAVETLICDRRTAGPAREKA, the amyloid nucleation score is reported as “inactive”. For EASNCFAIRHFENKFAVETLICDRSEPLVRGG, the amyloid nucleation score was “inactive”. EASNCFAIRHFENKFAVETLICDRSGEDADKGTS gave an amyloid nucleation score of 7.37. With EASNCFAIRHFENKFAVETLICDRSGV the amyloid nucleation score was “inactive”. With EASNCFAIRHFENKFAVETLICDRSNGHWPRSEQ the amyloid nucleation score was “inactive”. With EASNCFAIRHFENKFAVETLICDRT the amyloid nucleation score was “inactive”. Sequence EASNCFAIRHFENKFAVETLICDRYGRQPTARWM has an amyloid nucleation score of -0.782. In the case of EASNCFAIRHFENKFAVETLICDS, the amyloid nucleation score is reported as “inactive”. For EASNCFAIRHFENKFAVETLICDSASVLRGRAAW, the amyloid nucleation score was 2.21. With EASNCFAIRHFENKFAVETLICDSCLASCGVQC the amyloid nucleation score was 0.693. For EASNCFAIRHFENKFAVETLICDSCNYLLGLR, the amyloid nucleation score was “inactive”. With EASNCFAIRHFENKFAVETLICDSDYIVASYSVG the amyloid nucleation score was “inactive”. In the case of EASNCFAIRHFENKFAVETLICDSGS, the amyloid nucleation score is reported as “inactive”. For EASNCFAIRHFENKFAVETLICDSKALVGERRQW, the amyloid nucleation score was 3.03. For EASNCFAIRHFENKFAVETLICDSLSTKYGLNLR, the amyloid nucleation score was “inactive”. With EASNCFAIRHFENKFAVETLICDSNFVRSLCAHT the amyloid nucleation score was “inactive”. In the case of EASNCFAIRHFENKFAVETLICDSQLFHGHECSG, the amyloid nucleation score is reported as “inactive”. In the case of EASNCFAIRHFENKFAVETLICDSQWRKESLSWE, the amyloid nucleation score is reported as “inactive”.

Same assay, conditions: random library (experiment): 2
For EASNCFAIRHFENKFAVETLICDNVYFCVGMIRG, the amyloid nucleation score was 6.03. In the case of EASNCFAIRHFENKFAVETLICDNYQS, the amyloid nucleation score is reported as “inactive”. With EASNCFAIRHFENKFAVETLICDPAFCPRLCVSR the amyloid nucleation score was “inactive”. In the case of EASNCFAIRHFENKFAVETLICDPCVSYGSGGVS, the amyloid nucleation score is reported as “inactive”. Work on EASNCFAIRHFENKFAVETLICDPFILFGGMASR yielded an amyloid nucleation score of 7.56. In the case of EASNCFAIRHFENKFAVETLICDQYNQSIMRRSW, the amyloid nucleation score is reported as 3.33. With EASNCFAIRHFENKFAVETLICDRAGEYQCGSWV the amyloid nucleation score was “inactive”. EASNCFAIRHFENKFAVETLICDRCSMTKRSGMG gave an amyloid nucleation score of 0.503. EASNCFAIRHFENKFAVETLICDRDSFCWAEFFK gave an amyloid nucleation score of 4.83. With EASNCFAIRHFENKFAVETLICDRFAAGAGFRGA the amyloid nucleation score was “inactive”. For EASNCFAIRHFENKFAVETLICDRGTRLDGLLRG, the amyloid nucleation score was “inactive”. Work on EASNCFAIRHFENKFAVETLICDRIESLQCMWLV yielded an amyloid nucleation score of 4.85. For EASNCFAIRHFENKFAVETLICDRLLSC, the amyloid nucleation score was “inactive”. With EASNCFAIRHFENKFAVETLICDRNVY the amyloid nucleation score was “inactive”. In the case of EASNCFAIRHFENKFAVETLICDRRLDNSCYGRL, the amyloid nucleation score is reported as “inactive”. With EASNCFAIRHFENKFAVETLICDRRVRTVMQKSA the amyloid nucleation score was “inactive”. With EASNCFAIRHFENKFAVETLICDRTNYIGKLEGE the amyloid nucleation score was “inactive”. For EASNCFAIRHFENKFAVETLICDSCDFSSQLIVR, the amyloid nucleation score was “inactive”. In the case of EASNCFAIRHFENKFAVETLICDSCTPVLRILIH, the amyloid nucleation score is reported as “inactive”. For EASNCFAIRHFENKFAVETLICDSDDPGVRVFRY, the amyloid nucleation score was “inactive”. With EASNCFAIRHFENKFAVETLICDSDSMFSFFCTP the amyloid nucleation score was 7.83. In the case of EASNCFAIRHFENKFAVETLICDSFCMCGIWSWW, the amyloid nucleation score is reported as “inactive”. For EASNCFAIRHFENKFAVETLICDSMS, the amyloid nucleation score was “inactive”. EASNCFAIRHFENKFAVETLICDSSFTCKRQERW showed an amyloid nucleation score of 4.03.

Same assay, conditions: random library (experiment): 3
With EASNCFAIRHFENKFAVETLICDNWR the amyloid nucleation score was “inactive”. With EASNCFAIRHFENKFAVETLICDPLDNKSGDFKM the amyloid nucleation score was “inactive”. With EASNCFAIRHFENKFAVETLICDPNRYLLYWIQL the amyloid nucleation score was “inactive”. In the case of EASNCFAIRHFENKFAVETLICDPVLPRIGSGQT, the amyloid nucleation score is reported as “inactive”. With EASNCFAIRHFENKFAVETLICDQAIRIRYQNLE the amyloid nucleation score was “inactive”. Sequence EASNCFAIRHFENKFAVETLICDQFICDAAMRRW has an amyloid nucleation score of 7.52. With EASNCFAIRHFENKFAVETLICDQGWLPAGDWSW the amyloid nucleation score was “inactive”. For EASNCFAIRHFENKFAVETLICDQLFLQVMSGCV, the amyloid nucleation score was “inactive”. With EASNCFAIRHFENKFAVETLICDQQQFV the amyloid nucleation score was “inactive”. In the case of EASNCFAIRHFENKFAVETLICDQRVPGPITGPG, the amyloid nucleation score is reported as “inactive”. With EASNCFAIRHFENKFAVETLICDQVRMRPVRALM the amyloid nucleation score was “inactive”. For EASNCFAIRHFENKFAVETLICDRARAPWSVRCM, the amyloid nucleation score was “inactive”. With EASNCFAIRHFENKFAVETLICDRARGKVWMVGP the amyloid nucleation score was “inactive”. With EASNCFAIRHFENKFAVETLICDRARKDFIDQYR the amyloid nucleation score was 1.18. For EASNCFAIRHFENKFAVETLICDRCLGDRRGSFR, the amyloid nucleation score was “inactive”. In the case of EASNCFAIRHFENKFAVETLICDRCLRSELGSRS, the amyloid nucleation score is reported as “inactive”. In the case of EASNCFAIRHFENKFAVETLICDRE, the amyloid nucleation score is reported as “inactive”. With EASNCFAIRHFENKFAVETLICDRLRRCSLHLWL the amyloid nucleation score was “inactive”. For EASNCFAIRHFENKFAVETLICDRLVEAWAWTGG, the amyloid nucleation score was “inactive”. In the case of EASNCFAIRHFENKFAVETLICDRQSLSCVRSYM, the amyloid nucleation score is reported as 0.908. EASNCFAIRHFENKFAVETLICDRRDSMMVYEWM gave an amyloid nucleation score of 4.11. For EASNCFAIRHFENKFAVETLICDRRVMVRYCLTE, the amyloid nucleation score was “inactive”. Work on EASNCFAIRHFENKFAVETLICDRTCWSKSGLMG yielded an amyloid nucleation score of 0.798. Work on EASNCFAIRHFENKFAVETLICDRTGFNWSYGRR yielded an amyloid nucleation score of 2.11. In the case of EASNCFAIRHFENKFAVETLICDRVGTKNLCLRG, the amyloid nucleation score is reported as “inactive”. For EASNCFAIRHFENKFAVETLICDRYSAKSISYEL, the amyloid nucleation score was 2.32. EASNCFAIRHFENKFAVETLICDSALSRNGAWST showed an amyloid nucleation score of 4.45. Sequence EASNCFAIRHFENKFAVETLICDSECSLALFHWG has an amyloid nucleation score of 6.53. Sequence EASNCFAIRHFENKFAVETLICDSEEVVKSNYAA has an amyloid nucleation score of 3.58. With EASNCFAIRHFENKFAVETLICDSGADLGINGSG the amyloid nucleation score was “inactive”. Sequence EASNCFAIRHFENKFAVETLICDSGMRLHRVPMK has an amyloid nucleation score of 4.73. For EASNCFAIRHFENKFAVETLICDSIGQCVVGAKS, the amyloid nucleation score was 3.86. In the case of EASNCFAIRHFENKFAVETLICDSLWCRCGVCYI, the amyloid nucleation score is reported as “inactive”. Sequence EASNCFAIRHFENKFAVETLICDSPVCMCLGFRY has an amyloid nucleation score of 5.73. With EASNCFAIRHFENKFAVETLICDSSFSKPSVL the amyloid nucleation score was “inactive”.
